# From the supplement of paper PMC12632987
# The full ranking holds about 4,500 sequences; the median of “median log2 fold change of GCK-ALFA target abundance (FLAG IP / Myc IP barcode read proportion)” is about 0.078, and the lowest 2% start at about -0.6. The list shows a part of the results.
# B1: GBRAP_128_3559 (protein)
# chain: SVEERVEKAKELLEKIKNSDVEEARKYAEELAKLLEEADEESLEAIVETILERLPELSVEHLDVLADVFRERIPEADPRTAEALAEIQVEALNEAEEKEE
# B2: GBRAP_26_5425 (protein)
# chain: LDEAVERAIERISAAAAELLDPETAAAVRAVVTDELLEAEEEIEEEDLSEEEVEELLEEVLEEIEEDLEELGVPAEKRARLVAVAEEELEEVLEEWKEER
# B3: GBRAP_184_5223 (protein)
# chain: TLLREAVEATTAEELIAKADAVVDAAAAAGVDLVLTVIAKGLSVEEVRKVAAHLAELRDAGRIKDAILVVEDPKSEEEVDELVAIADENGIKLVIALSEE
# B4: GBRAP_166_4969 (protein)
# chain: MEEEIVKELKEFIDEKAEKMKTADHEEKLELLAEVAEKLGEAIKKGLSNENLKELVEYLIKKALEVGISPSEVEGALSIIADLDEEQIDILEEARKKVLA
# B5: GBRAP_11_2759 (protein)
# chain: KKEKLKEIAELAEKLAELLTKLLEEGVDNEELLAEAKKALEKLKELVEKYGDEDLKKLVKILEEEFKKALEDPENKEEHVQHARDTAAVISGQALLDYEE
# B6: GBRAP_137_3638 (protein)
# chain: PNVTITTETVDDLVKITIKFDDPEKAEEAKELIEDIAHEEGALALSIEINEDGTLDAEIWVPKEKAEKLINKLVEAFKTKFNATVTIINKDTGEVTTIKA
# B7: GBRAP_184_5117 (protein)
# chain: KVLEHTIKAKDVAEAKEKLAAVREEAAASKATVVVVVEVENPTVELAKAIIAEAAAIREAGAKDVLLEIVGDNITDEVIDAIVAAADAAGLDNVVIARTE
# B8: GBRAP_184_5201 (protein)
# chain: AVKEFTIKFENLEELKEKLKELLEELKGFKGDIYIIVEAEEITKEMAEEIVKFLKEVKEKGYATSVTVDIEGKISEEVEDFLLKKSKELGVKVVIALDEE
# B9: GBRAP_45_5812 (protein)
# chain: SEEAEKARQKAIEALNKAIKLVEEDERIPEETKEKILEHLKKALELLQQPDLNEELVDEALKHVDEALKLLASEPNVSGELVDAVEDAAEYLAELGDLLE
# B10: GBRAP_160_4299 (protein)
# chain: MEKLEELKEEIEEIAEEAIEMIEGETPEQRKTIVRVAMGDIILLAEENPEVSDEAEEEIAKVADETEETIDANPDLTEEEVKELIEEAREKVLEIIEKLE
# B11: GBRAP_26_5443 (protein)
# chain: IEELIDEVEEKLLEAIDELLPPELAGPAKASLLTILEELEEKLKENKNDFEKQEKIAEEALEEFEEDLEELGVPEEEREKLVELLEEELKKLLKKIKEEK
# B12: GBRAP_184_5032 (protein)
# chain: MVIEEEIEAENLEELKEKLEELEKKVEGKKADLIVSLNIKNPTEEMIKTALAMLGKMKKEGKVTSVTVGFKNLLSEELIDVALKAADENGVKVVLPISEE
# B13: GBRAP_160_4815 (protein)
# chain: MEKVKKLLEEARKDLLDTAEASKDLPIEDRAALLRAEGYTAILELKEELNLSDETEDKLVEIVDDLVATLLANPDLTPEEVLALVEEAHERMEEIVLKEA
# B14: GBRAP_184_5281 (protein)
# chain: KVEEVEIDAETAEEAIEELEKAAKEAKAKGAKLKLNILLRNASLEGVKELFKLLKELKEQGIIESATVGLEREVSEEELDELLKAADEAGVKLVVAIPDE
# B15: GBRAP_9_7176 (protein)
# chain: LKEAADAAIKGAKEAKEFILEVVPEEEKEKIKEAFDEFIKKLEEMKADPNVTKEEFEKKLEEGIEKIIKLAKENLTPEIAAIVETELLTIEDEVDELLDE
# B16: GBRAP_160_4403 (protein)
# chain: SEEYEKLAKEVEELIAETKELIEGETPEQRKVIIRVMVGDILLAAEENPAVTDEQEEEIAALLDASLAAILAAVDKGLEAVKAALDALLAELKALIEKYK
# B17: GBRAP_11_2677 (protein)
# chain: KKEELKKIAELARKLAEAIEKLLKEGVDNEELRKEIEKLLEELEKLAKKHADKGIQTLVEIAKELWKEAKENPEKAEEYLKLLLAAVRVLAANVEEEIDE
# B18: GBRAP_160_4758 (protein)
# chain: KEELKKLKEEVKEIFEEYLEMLKEVPASEAPTVVRGAMGEVIMEVMSSEAASEELEEKIGEIADEAEAEAAANADAPVEYHIAILEEAKEKVLKLIEEEI
# B19: GBRAP_14_3877 (protein)
# chain: MEEIEEAIEEAREELKEFFESLDPEKAERAKEAVDEIFEEMLEEIKKTGKYREALEKARERLLAELEEILADAPAEERAAALAEVAVTLAELEEEIDELL
# B20: GBRAP_184_5054 (protein)
# chain: KIFEREIEAENKEELEKKLEELEEEVKNHKGDLIVTVKIPKFTKEMIELIMKRAKEILEKGYAKRITIGLDGDMSEEVVDLALELADKAGVNVVIALDEE
# B21: GBRAP_39_5685 (protein)
# chain: EEEEEDENVVSYLEGLAAARLYETGKSLEELFEEAKKILKALAKEEPELKELIEELIELAEKKGDEAKLALIGIAVLVEEGTPLEEIKENIEKVINYFKK
# B22: GBRAP_78_6698 (protein)
# chain: ELEEIIEEAIKLVGEAARLTKALPADARNELLDLLVDAASDLLEAEENGGDLEELKEALKHLKEALALADALNDPRAEPLRELLEKAIKLVEEAIKLVEK
# B23: GBRAP_160_4846 (protein)
# chain: SEKLKKVKEELEEAREFVLSLVDEVSVEDVAKFARAELGSTALYLYEKGYINEEALDAILEEADELEEELLANKDASKEEIKAIIKEKVERAIKKVEKLL
# B24: GBRAP_11_2827 (protein)
# chain: EKEKLKRLAEKAREIAKELEKLIKSGNPTEEELEELLKKAEELLKETKEYGTPAQVKLAEILLEEIKEAIANPEKQKEYLEQALAFARVLEGQYLLEADE
# B25: GBRAP_39_5647 (protein)
# chain: DEEEENELLFSYFEALAMKYQIEKGISTEELIKEGLELLEKLKKEYPEIKELLDELIKLAKEGDEETKLAAVGIALLKEEGESVEKLKEHIEKFIKYVKS
# B26: GBRAP_160_4008 (protein)
# chain: SPETEALKEEIRELIEELIEDMKGLSPEERITLARGMMGDILQLAFDSPVVSDETEDEIAEIGDEFLAELEANADAPLEVWVELAEDFEERIFELLDKSE
# B27: GBRAP_137_3620 (protein)
# chain: KTVRITFYEEDGTLIAEITADTSVDREKLLALVEEVAEKHGVQLVVAESEPDEPLELYLVGEPEKVIAAVKDLIERLKEELGVEVVLESDGAEAAVEAVK
# B28: GBRAP_39_5712 (protein)
# chain: DKEEELELLASYGEALFDRYAYENGISEEEAIKEGLEFMRELAERNPEHREEILALLEEAEKLGEEAKRYVAAAAALIRDGMSLEEAIEVLKYKLEQLKK
# B29: GBRAP_52_6161 (protein)
# chain: MKEKAEEYANKVIEAVKAGKEEELEKLLKEIAETLSEEEIELMLDIIAEKVPELTPEEAERVVEAAIRLEDLGIEAGKDEELLSYKLARVAAAAYARLQA
# Biological target: GABARAP, O95166
# Assay: median log2 fold change of GCK-ALFA target abundance (FLAG IP / Myc IP barcode read proportion) (log2 ratio); each designed protein is fused to an ALFA-tag nanobody in HEK293 cells to bring the named protein to FLAG-tagged glucokinase (GCK); Myc marks an untargeted standard; higher = target protein stabilised (more abundant)
# Settings: target protein: 3xFLAG-MCP-GCK-ALFA reporter; HEK293 landing pad (RPLP)
# Procedure, shortened: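 HEK293 landing-pad cells received a recombined binder library fused to the ALFA nanobody and were induced with 2 μg mL^−1 doxycycline, then transfected with a plasmid encoding a FLAG-tagged target and a Myc-tagged standard. Lysates were collected after 48 h for anti-FLAG and anti-Myc immunoprecipitation, and the circular RNA barcodes were reverse transcribed, amplified and sequenced. Target abundance for each binder is the median log2 ratio of FLAG to Myc barcode read proportions. Barcodes had to reach a proportion of at least 10^−7 in both replicates, each binder needed at least 3 barcodes per replicate, a pseudocount of 10^−6 was applied, and the two replicates were pooled.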
# Chain of GABARAP, O95166 (O95166 whole entry, the tested form may be a part): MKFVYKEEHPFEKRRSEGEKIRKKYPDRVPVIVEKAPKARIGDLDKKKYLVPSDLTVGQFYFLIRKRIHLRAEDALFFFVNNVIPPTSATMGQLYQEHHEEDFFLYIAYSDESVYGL
row,Binder,median log2 fold change
1,B1,0.095
2,B2,-0.608
3,B3,-0.0259
4,B4,0.281
5,B5,0.312
6,B6,0.192
7,B7,0.329
8,B8,0.0646
9,B9,0.275
10,B10,-0.297
11,B11,0.00424
12,B12,0.231
13,B13,0.00395
14,B14,-0.00895
15,B15,0.0747
16,B16,-0.455
17,B17,0.211
18,B18,-0.0284
19,B19,0.0558
20,B20,0.179
21,B21,-0.604
22,B22,-0.0276
23,B23,0.306
24,B24,0.0418
25,B25,0.266
26,B26,-0.065
27,B27,-0.0746
28,B28,0.014
29,B29,0.0239
